The source of these data is the supplement of paper PMC8285479.

Where a name gives a salt, the structure may show the parent alone. ± gives the standard deviation of the averaged measurements. Over roughly 1,900 compounds, “normalised cell viability (NPI; 0 = phenylarsine oxide control, 1 = DMSO control)” has its median near 1; the lowest 2% begin near 0.039. Some of the results follow.

This assay has as its system NCI-H1944. Description: normalised cell viability (NPI; 0 = phenylarsine oxide control, 1 = DMSO control) (fraction of DMSO control); NCI-H1944 is a non-small cell lung cancer line; higher = more viable cells (less compound toxicity). To be noted: 6 days.
Setting [1] is: glucocorticoid arm: hydrocortisone 2.75 uM co-treatment, compound 1 µM.
Setting [2] is: glucocorticoid arm: hydrocortisone 2.75 uM co-treatment, compound 5 µM.
The mark [3] stands for this setting: glucocorticoid arm: hydrocortisone 2.75 uM pre-treated 2 days and continued, compound 1 µM.
The mark [4] stands for this setting: glucocorticoid arm: hydrocortisone 2.75 uM pre-treated 2 days and continued, compound 5 µM.
Where [5] appears, read: glucocorticoid arm: vehicle, compound 1 µM.
Setting [6] is: glucocorticoid arm: vehicle, compound 5 µM.
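Also: CTB read-out in 384-well plates, mean of triplicate wells, normalised per plate against 1 µM phenylarsine oxide and 0.1% DMSO, compounds added 24 h after seeding.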

With `CN1CCc2cc(O)cc3c2[C@H]1Cc1ccc(O)c(O)c1-3` [R(-)-2,10,11-Trihydroxyaporphine hybrobromide], the normalised cell viability is 0.9983 ± 0.0029 under setting [1]; 0.993 ± 0.0087 under setting [2]; 0.994 ± 0.014 under setting [3]; 0.953 ± 0.0099 under setting [4]; 0.999 ± 0.01 under setting [5]; 1.01 ± 0.034 under setting [6].
Consider `O=C1CC[C@@]2(O)[C@H]3Cc4ccc(O)c5c4[C@@]2(CCN3CC2CC2)[C@H]1O5` [Naltrexone hydrochloride], for which the normalised cell viability by setting is: under setting [1], 1 ± 0.02; under setting [2], 0.995 ± 0.039; under setting [3], 1.02 ± 0.01; under setting [4], 1.01 ± 0.038; under setting [5], 1 ± 0.0095; under setting [6], 1.013 ± 0.0058.
As for `O=C1CC[C@@]2(O)[C@H]3Cc4ccc(O)c5c4[C@@]2(CCN3CC2CC2)[C@H]1O5` [Naltrexone HCl], the normalised cell viability is, setting by setting: under setting [1], 1.03 ± 0.011; under setting [2], 1.03 ± 0.011; under setting [3], 1.03 ± 0.015; under setting [4], 1.02 ± 0.022; under setting [5], 1.007 ± 0.0058; under setting [6], 1.003 ± 0.0058.
In the case of `CN1CC[C@@]2(C)c3cc(O)ccc3N(C)C12` (single isomer, unassigned; (-)) [(-)-Eseroline fumarate], the normalised cell viability by setting is: under setting [1], 0.9967 ± 0.0058; under setting [2], 0.972 ± 0.013; under setting [3], 1.03 ± 0.045; under setting [4], 0.971 ± 0.011; under setting [5], 0.9967 ± 0.0042; under setting [6], 0.996 ± 0.012.
On to `CCN1C[C@]2(C)CC[C@H](O)[C@]34C1[C@@H](C[C@H]23)[C@@]1(O)C[C@H](OC)[C@H]2C[C@@H]4[C@@H]1[C@H]2O` [Karakoline], for which the normalised cell viability under setting [1] came to 0.9937 ± 0.0065; the normalised cell viability under setting [2] came out at 1 ± 0.019; the normalised cell viability under setting [3] is 1.007 ± 0.0058; the normalised cell viability under setting [4] was determined as 1.04 ± 0.082; the normalised cell viability under setting [5] turned out to be 0.987 ± 0.001; the normalised cell viability under setting [6] stood at 0.9897 ± 0.0096.
With `CC(=O)[C@H]1CC[C@H]2[C@@H]3CC[C@H]4C[C@H](O)CC[C@]4(C)[C@H]3CC[C@]12C` [5alpha-Pregnan-3alpha-ol-20-one], the normalised cell viability under setting [1] turned out to be 1.013 ± 0.0058; the normalised cell viability under setting [2] was 1.05 ± 0.015; the normalised cell viability under setting [3] was determined as 0.892 ± 0.21; the normalised cell viability under setting [4] turned out to be 1.07 ± 0.061; the normalised cell viability under setting [5] worked out at 1.013 ± 0.0058; the normalised cell viability under setting [6] was determined as 1.01 ± 0.011.
As for `CC(C)(C)c1cc(C=C(C#N)C#N)cc(Br)c1O`, the normalised cell viability worked out at 0.963 ± 0.072 under setting [1]; 1.01 ± 0.014 under setting [2]; 1.001 ± 0.0082 under setting [3]; 1.02 ± 0.01 under setting [4]; 0.9947 ± 0.0049 under setting [5]; 0.9947 ± 0.0061 under setting [6].
As to `C[Se]C[C@H](N)C(=O)O` [Se-(methyl)selenocysteine hydrochloride], the normalised cell viability was 1.006 ± 0.0069 under setting [1]; 1.02 ± 0.015 under setting [2]; 1 under setting [3]; 0.859 ± 0.28 under setting [4]; 1.006 ± 0.0069 under setting [5]; 1.01 ± 0.016 under setting [6].
As to `CCCN1CCC[C@@H](c2cccc(C#N)c2)C1` [S(-)-DS 121 hydrochloride], the normalised cell viability by setting is: under setting [1], 1.017 ± 0.0058; under setting [2], 0.972 ± 0.034; under setting [3], 1.01 ± 0.01; under setting [4], 0.985 ± 0.033; under setting [5], 1.02; under setting [6], 1.04 ± 0.047.
For `CC(NC(C)(C)C)C(=O)c1cccc(Cl)c1` (stereo not given) [Bupropion hydrochloride], the normalised cell viability under setting [1] turned out to be 1.003 ± 0.0061; the normalised cell viability under setting [2] stood at 1.013 ± 0.0058; the normalised cell viability under setting [3] was determined as 0.9973 ± 0.0038; the normalised cell viability under setting [4] worked out at 1 ± 0.014; the normalised cell viability under setting [5] came to 0.985 ± 0.0087; the normalised cell viability under setting [6] was 0.988 ± 0.011.
Take `CC(NC(C)(C)C)C(=O)c1cccc(Cl)c1` (stereo not given) [Amfebutamone HCl]: the normalised cell viability under setting [1] was determined as 1 ± 0.014; the normalised cell viability under setting [2] is 1.01 ± 0.015; the normalised cell viability under setting [3] was 1.01 ± 0.01; the normalised cell viability under setting [4] stood at 0.999 ± 0.0098; the normalised cell viability under setting [5] came out at 1.007 ± 0.0058; the normalised cell viability under setting [6] amounted to 1.005 ± 0.0087.
For `N[C@]1(C(=O)O)CC[C@H](C(=O)O)C1` (racemic) [trans-(±)-ACPD], the normalised cell viability was 0.992 ± 0.017 under setting [1]; 1.001 ± 0.0085 under setting [2]; 0.9957 ± 0.0067 under setting [3]; 0.9975 ± 0.0035 under setting [4]; 0.986 ± 0.012 under setting [5]; 0.987 ± 0.0099 under setting [6].
Take `Oc1ccc2c3c1O[C@H]1c4[nH]c5ccccc5c4C[C@@]4(O)[C@@H](C2)N(CC2CC2)CC[C@]314` [Naltrindole hydrochloride]: the normalised cell viability runs as follows: under setting [1], 0.997 ± 0.013; under setting [2], 1.02 ± 0.026; under setting [3], 1.01; under setting [4], 1.033 ± 0.0058; under setting [5], 0.9983 ± 0.0021; under setting [6], 1.01 ± 0.023.
Consider `CN1[C@@H]2C[C@@H](OC(=O)[C@H](CO)c3ccccc3)C[C@H]1[C@@H]1O[C@@H]12` [Scopolamine HBr], for which the normalised cell viability runs as follows: under setting [1], 1 ± 0.011; under setting [2], 0.986 ± 0.024; under setting [3], 1.02 ± 0.017; under setting [4], 1 ± 0.029; under setting [5], 1.003 ± 0.0061; under setting [6], 0.991 ± 0.0066.
Consider `CN1[C@@H]2C[C@@H](OC(=O)[C@H](CO)c3ccccc3)C[C@H]1[C@@H]1O[C@@H]12` [(-)-Scopolamine hydrobromide], for which the normalised cell viability under setting [1] worked out at 0.9923 ± 0.0015; the normalised cell viability under setting [2] came to 0.983 ± 0.024; the normalised cell viability under setting [3] was 0.87 ± 0.23; the normalised cell viability under setting [4] was 0.987 ± 0.022; the normalised cell viability under setting [5] was found to be 1.001 ± 0.009; the normalised cell viability under setting [6] was 0.9953 ± 0.0042.
For the compound `COc1ccc(N(C(=O)Oc2c(C)cccc2C)c2ccnc(Nc3ccc(N4CCN(C)CC4)cc3)n2)c(OC)c1`, the normalised cell viability stood at 1.027 ± 0.0058 under setting [1]; 1.04 ± 0.043 under setting [2]; 1.027 ± 0.0058 under setting [3]; 0.672 ± 0.16 under setting [4]; 1.003 ± 0.0058 under setting [5]; 1.01 under setting [6].
On to `Cc1sc2ccccc2c1CC1=NCCN1` [Benazoline oxalate], for which the normalised cell viability by setting is: under setting [1], 0.999 ± 0.011; under setting [2], 1.01 ± 0.017; under setting [3], 0.992 ± 0.016; under setting [4], 1.02 ± 0.021; under setting [5], 0.9927 ± 0.0067; under setting [6], 1.01.
In the case of `O=C(O)[C@@H]1[C@H](C(=O)O)[C@H]2CC[C@@H]1O2` [Endothall], the normalised cell viability under setting [1] stood at 1.01 ± 0.01; the normalised cell viability under setting [2] was determined as 1.05 ± 0.01; the normalised cell viability under setting [3] amounted to 1.007 ± 0.0058; the normalised cell viability under setting [4] worked out at 1.07 ± 0.015; the normalised cell viability under setting [5] turned out to be 0.9967 ± 0.0025; the normalised cell viability under setting [6] is 1.007 ± 0.0058.
In the case of `N[C@@H]1C[C@H]1c1ccccc1` [Tranylcypromine (2-PCPA) HCl], the normalised cell viability by setting is: under setting [1], 0.9843 ± 0.0095; under setting [2], 0.994 ± 0.016; under setting [3], 0.981 ± 0.015; under setting [4], 0.995 ± 0.013; under setting [5], 0.9983 ± 0.0011; under setting [6], 1.003 ± 0.0058.
Consider `N[C@@H]1C[C@H]1c1ccccc1` [Tranylcypromine hydrochloride], for which the normalised cell viability under setting [1] turned out to be 0.9943 ± 0.0029; the normalised cell viability under setting [2] came out at 0.966 ± 0.013; the normalised cell viability under setting [3] came out at 1.01 ± 0.024; the normalised cell viability under setting [4] turned out to be 0.97 ± 0.015; the normalised cell viability under setting [5] amounted to 0.995 ± 0.0062; the normalised cell viability under setting [6] is 0.9807 ± 0.0031.
As for `CCCN(CCC)[C@@H]1CCc2c(F)ccc(O)c2C1` [R(+)-UH-301 hydrochloride], the normalised cell viability by setting is: under setting [1], 1.013 ± 0.0058; under setting [2], 1.017 ± 0.0058; under setting [3], 1.03 ± 0.021; under setting [4], 1.017 ± 0.0058; under setting [5], 1.02; under setting [6], 1.017 ± 0.0058.
As for `NCC(CC(=O)O)c1ccc(Cl)cc1` (racemic) [(±)-Baclofen], the normalised cell viability under setting [1] turned out to be 1.006 ± 0.0069; the normalised cell viability under setting [2] turned out to be 1.03 ± 0.021; the normalised cell viability under setting [3] stood at 1.002 ± 0.0068; the normalised cell viability under setting [4] turned out to be 1.01 ± 0.037; the normalised cell viability under setting [5] came out at 0.9827 ± 0.004; the normalised cell viability under setting [6] worked out at 0.954 ± 0.012.
On to `COC[C@H]1OC(=O)c2coc3c2[C@@]1(C)C1=C(C3=O)[C@@H]2CCC(=O)[C@@]2(C)C[C@H]1OC(C)=O` [Wortmannin], for which the normalised cell viability runs as follows: under setting [1], 0.857 ± 0.04; under setting [2], 0.706 ± 0.025; under setting [3], 0.833 ± 0.017; under setting [4], 0.737 ± 0.029; under setting [5], 0.96 ± 0.012; under setting [6], 0.89 ± 0.017.
As for `CNCCc1ccc(O)c(O)c1` [N-Methyldopamine hydrochloride], the normalised cell viability worked out at 1.002 ± 0.0068 under setting [1]; 0.9903 ± 0.0067 under setting [2]; 1.01 under setting [3]; 1 ± 0.024 under setting [4]; 1.003 ± 0.0061 under setting [5]; 1.001 ± 0.0078 under setting [6].
As for `Clc1cnc(Oc2ccc(Oc3ncc(Cl)cc3Cl)cc2)c(Cl)c1`, the normalised cell viability reads like this: under setting [1], 0.9947 ± 0.0092; under setting [2], 0.9947 ± 0.0051; under setting [3], 1.02 ± 0.026; under setting [4], 1.01 ± 0.012; under setting [5], 0.9823 ± 0.0055; under setting [6], 0.9837 ± 0.0035.
